Like-named read-outs stand apart in the source and are kept apart here. Results are given in words; binding and its absence hold for the method and conditions named. In cells and extracts the contact can be indirect. Some results given as binding are weak or reduced against the parent protein; the word gives no strength. For part of these data: Sequences can lack the tags named with a protein.
Tests used:
Myc-STIM1 [1] = target: Myc-STIM1 (UniProt Q13586); assay: co-IP; HEK-293T cells co-transfected for 48 h with Myc-STIM1, His-TRIM32 and Flag-TSPAN18, one of the last two in increasing amounts; precipitated with anti-STIM1 antibody
Myc-STIM1 [2] = target: Myc-STIM1 (UniProt Q13586); assay: co-IP; HEK-293T cells co-transfected with tagged plasmids; anti-Flag, anti-Myc or anti-His antibody, Western blot
Flag-TSPAN18 [3] = target: T1, Flag-TSPAN18 (UniProt Q96SJ8); assay: co-IP; DU145 cells transfected with tagged plasmids or stably overexpressing Flag-TSPAN18 (also with siRNA to STIM1 or Orai1); anti-Flag, anti-Myc or anti-His antibody, Western blot
T1 sequence: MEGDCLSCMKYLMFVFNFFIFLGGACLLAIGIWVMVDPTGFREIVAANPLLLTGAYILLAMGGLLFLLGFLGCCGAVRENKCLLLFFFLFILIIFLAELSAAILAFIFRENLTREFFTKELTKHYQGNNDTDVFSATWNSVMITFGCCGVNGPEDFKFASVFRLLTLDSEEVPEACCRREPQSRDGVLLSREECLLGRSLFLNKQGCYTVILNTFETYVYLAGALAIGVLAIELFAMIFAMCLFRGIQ

The chains behind the UniProt entries cited, without tags or fusion partners. Residues count along the entry.
UniProt Q13586, residues 23-685: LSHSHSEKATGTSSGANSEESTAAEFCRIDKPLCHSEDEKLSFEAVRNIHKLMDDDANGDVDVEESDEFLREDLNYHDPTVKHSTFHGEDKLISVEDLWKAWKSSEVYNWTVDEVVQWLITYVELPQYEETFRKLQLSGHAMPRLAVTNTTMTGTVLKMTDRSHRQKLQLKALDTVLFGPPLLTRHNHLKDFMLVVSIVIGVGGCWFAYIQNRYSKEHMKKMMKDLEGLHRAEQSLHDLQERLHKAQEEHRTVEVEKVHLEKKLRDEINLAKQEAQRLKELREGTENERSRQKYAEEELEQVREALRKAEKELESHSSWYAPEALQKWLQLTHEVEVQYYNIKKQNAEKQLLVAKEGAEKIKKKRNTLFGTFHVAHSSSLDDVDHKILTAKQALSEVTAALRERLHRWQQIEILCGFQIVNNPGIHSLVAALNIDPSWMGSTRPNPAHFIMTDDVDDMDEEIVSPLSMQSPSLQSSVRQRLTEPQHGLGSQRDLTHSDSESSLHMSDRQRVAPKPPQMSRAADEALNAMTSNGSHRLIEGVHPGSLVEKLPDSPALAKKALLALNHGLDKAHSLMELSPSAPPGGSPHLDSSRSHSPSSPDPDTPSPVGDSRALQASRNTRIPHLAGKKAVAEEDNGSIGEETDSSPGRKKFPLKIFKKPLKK
UniProt Q13049: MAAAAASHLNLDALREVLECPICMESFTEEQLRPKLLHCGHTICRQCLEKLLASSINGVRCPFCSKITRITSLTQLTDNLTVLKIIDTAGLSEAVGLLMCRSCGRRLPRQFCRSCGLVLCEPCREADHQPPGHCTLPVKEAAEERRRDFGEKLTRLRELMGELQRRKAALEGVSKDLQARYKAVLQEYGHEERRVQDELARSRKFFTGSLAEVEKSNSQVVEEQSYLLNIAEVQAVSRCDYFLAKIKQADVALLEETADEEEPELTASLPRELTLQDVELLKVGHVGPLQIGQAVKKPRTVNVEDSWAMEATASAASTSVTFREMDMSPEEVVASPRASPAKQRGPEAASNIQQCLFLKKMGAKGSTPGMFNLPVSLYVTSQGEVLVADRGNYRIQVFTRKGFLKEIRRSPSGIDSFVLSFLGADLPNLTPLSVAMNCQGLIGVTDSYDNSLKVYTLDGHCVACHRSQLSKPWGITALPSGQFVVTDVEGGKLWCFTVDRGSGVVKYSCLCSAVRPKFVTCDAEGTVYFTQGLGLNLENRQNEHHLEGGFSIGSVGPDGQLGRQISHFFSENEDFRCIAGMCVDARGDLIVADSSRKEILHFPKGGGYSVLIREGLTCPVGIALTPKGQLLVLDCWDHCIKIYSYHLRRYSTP

Myc-STIM1 [4] = target: Myc-STIM1 (UniProt Q13586); assay: as above
His-TRIM32 [5] = target: His-TRIM32 (UniProt Q13049); assay: co-IP; HEK-293T cells co-transfected with tagged plasmids; anti-Flag, anti-Myc or anti-His antibody, Western blot
Flag-TSPAN18 [6] = target: T1, Flag-TSPAN18; assay: as above
His-TRIM32 [7] = target: His-TRIM32 (UniProt Q13049); assay: co-IP; DU145 cells transfected with tagged plasmids or stably overexpressing Flag-TSPAN18 (also with siRNA to STIM1 or Orai1); anti-Flag, anti-Myc or anti-His antibody, Western blot
[8] = target: stromal interaction molecule 1 (STIM1), endogenous (human (endogenous in DU145 and PC-3)) (UniProt Q13586); assay: co-IP; endogenous proteins in PCa cell lysates (DU145 and PC-3), anti-STIM1 or anti-TRIM32 antibody, 4 C overnight, magnetic beads, Western blot
[9] = target: stromal interaction molecule 1 (STIM1), endogenous (human (endogenous in DU145 and PC-3)) (UniProt Q13586); assay: as above; remark: listed apart in the source
Myc-STIM1 [10] = target: Myc-STIM1 (UniProt Q13586); assay: co-IP; DU145 cells transfected with tagged plasmids or stably overexpressing Flag-TSPAN18 (also with siRNA to STIM1 or Orai1); anti-Flag, anti-Myc or anti-His antibody, Western blot; remark: listed apart in the source
Myc-STIM1 [11] = target: Myc-STIM1 (UniProt Q13586); assay: co-IP; HEK-293T cells co-transfected with tagged plasmids; anti-Flag, anti-Myc or anti-His antibody, Western blot; remark: listed apart in the source

Molecule: His-TRIM32 (from UniProt Q13049 1-653) (enzyme)
- binding (Myc-STIM1 [1]): binds
- binding (Myc-STIM1 [2]): binds
- binding (Flag-TSPAN18 [3]): no binding
- binding (Myc-STIM1 [4]): binds

Molecule: Myc-STIM1 (from UniProt Q13586 23-685)
- binding (His-TRIM32 [5]): binds
- binding (Flag-TSPAN18 [6]): binds
- binding (His-TRIM32 [7]): binds
- binding (Flag-TSPAN18 [3]): binds

Molecule: stromal interaction molecule 1 (STIM1), endogenous (from UniProt Q13586 23-685)
- binding (Flag-TSPAN18 [3]): binds

Molecule: tripartite motif containing 32 (TRIM32), endogenous (from UniProt Q13049 1-653) (enzyme)
- binding [8]: binds

B1: tetraspanin 18 (TSPAN18), endogenous (protein, UniProt Q96SJ8 1-248)
chain: MEGDCLSCMKYLMFVFNFFIFLGGACLLAIGIWVMVDPTGFREIVAANPLLLTGAYILLAMGGLLFLLGFLGCCGAVRENKCLLLFFFLFILIIFLAELSAAILAFIFRENLTREFFTKELTKHYQGNNDTDVFSATWNSVMITFGCCGVNGPEDFKFASVFRLLTLDSEEVPEACCRREPQSRDGVLLSREECLLGRSLFLNKQGCYTVILNTFETYVYLAGALAIGVLAIELFAMIFAMCLFRGIQ
- binding [9]: binds
- binding (Myc-STIM1 [10]): binds

B2: Flag-TSPAN18 (protein, UniProt Q96SJ8 1-248)
chain: MEGDCLSCMKYLMFVFNFFIFLGGACLLAIGIWVMVDPTGFREIVAANPLLLTGAYILLAMGGLLFLLGFLGCCGAVRENKCLLLFFFLFILIIFLAELSAAILAFIFRENLTREFFTKELTKHYQGNNDTDVFSATWNSVMITFGCCGVNGPEDFKFASVFRLLTLDSEEVPEACCRREPQSRDGVLLSREECLLGRSLFLNKQGCYTVILNTFETYVYLAGALAIGVLAIELFAMIFAMCLFRGIQ
- binding (Myc-STIM1 [11]): binds
- binding (Myc-STIM1 [1]): binds
- binding (Myc-STIM1 [10]): binds
